In PubChem BioAssay AID902 (National Center for Advancing Translational Sciences (NCATS), 2007):
The campaign covered roughly 130,000 compounds. About 1,900 (1.5%) were called active. The shares of active, inactive and inconclusive entries below differ from those in the screen. Calls come from the whole dose curve; as a rule, active = well fitted cell-killing curve with a large enough effect; inconclusive = small, poorly fitted or top-dose-only effect; inactive = no such curve, though single readings can be large or run the other way. A potency beside an inconclusive call is a rough fit, not a confirmed value. Where a structure was tested more than once in an assay, its records may differ in their call.
% is set by controls: 0 for no effect and ±100 for the full control effect; potency is the fitted concentration of half-maximal effect; tags give direction and shape of the fitted curve.

Assay: qHTS Screen for Compounds that Selectively Target Cancer Cells with p53 Mutations: Cytotoxicity of p53ts Cells at the Nonpermissive Temperature; note: nearly all actives have a fitted effect of over 55% in size
Details: H1299-p53A138V viability at 39C, ATP luminescence, 24 h; activity change, negative = cell killing: at 46.1 µM (top of the series)
In the case of Cc1cccc(-c2nc(CCNC(=O)c3ccccc3Br)cs2)c1, the Potency is reported as inconclusive: 1.26 µM [cytotoxic, full curve, poor fit].
With CCc1c2c(nc3c(C(C)C)cccc13)-c1cccc(=O)n1C2 the Potency was inconclusive: 20 µM [cytotoxic, single point].
With Cc1nn(CC(=O)NCc2ccccc2Cl)c(=O)c2cccn12 the Potency was inconclusive: 12.6 µM [cytotoxic, single point].
With COC(=O)c1sccc1S(=O)(=O)N(CC(=O)NCc1ccccc1)c1ccc(C)c(C)c1 the “activity change, negative = cell killing” value was inactive: -9.26%.
With CCN(CC)S(=O)(=O)c1cc(C(=O)Nc2ccccc2C(=O)O)ccc1OC the Potency was inconclusive: 15.8 µM [cytotoxic, partial curve].
For O=C(Nc1noc2ccccc12)c1c(F)cccc1F, the Potency was inconclusive: 10 µM [cytotoxic, partial curve].
In the case of CCN1/C(=C/C(=O)c2ccco2)Sc2ccccc21, the Potency is reported as inconclusive: 7.94 µM [cytotoxic, partial curve].
In the case of c1ccc2[nH]c(SCc3ccc(-c4nnco4)cc3)nc2c1, the Potency is reported as inconclusive: 12.6 µM [cytotoxic, partial curve].
With COc1ccc(-c2cc(OC(=O)c3ccc(F)cc3)c3c(C)oc(C)c3c(=O)c2)cc1OC the “activity change, negative = cell killing” value was inactive: 22.4%.
With Cc1ccc(Cc2c(C)nn(-c3nc(C)c(C(=O)N4CCCCC4C)s3)c2C)cc1 (stereo unspecified) the “activity change, negative = cell killing” value was inactive: 6.86%.
In the case of O=C(Nc1ccc(-c2nc3ccccc3[nH]2)cc1)C1CCCO1 (stereo unspecified), the Potency is reported as active: 3.98 µM.
For O=C(CCCc1ccccc1)N1CCc2ccccc21, the Potency was inconclusive: 3.98 µM [cytotoxic, full curve].
In the case of O=C(CCCOc1ccc(Cl)cc1Cl)NCCCO, the Potency is reported as inconclusive: 25.1 µM [cytotoxic, single point].
In the case of Cc1[nH]c2ccccc2c1C(O)CN1CCN(c2cccc(C(F)(F)F)c2)CC1 (stereo unspecified), the Potency is reported as inconclusive: 15.8 µM [cytotoxic, single point].
With Cc1ccc2nc(-c3ccc(NC(=O)C(F)(F)F)cc3)sc2c1 the Potency was active: 1.58 µM.
In the case of O=C(O)c1ccc(S(=O)(=O)c2ccc3c(c2)C(=O)N(Cc2ccco2)C3=O)cc1, the “activity change, negative = cell killing” value is reported as inactive: -3.89%.
In the case of CC(NC(=O)C1CCN(C(=O)N2CCOc3ccc(Cl)cc32)CC1)c1ccccc1 (stereo unspecified), the Potency is reported as inconclusive: 0.0126 µM [cytotoxic, full curve, poor fit].
For COc1ccc(N2CCN(C(=O)c3nn(C)c4c3CS(=O)(=O)c3ccccc3-4)CC2)cc1, the Potency was inconclusive: 0.398 µM [cytotoxic, full curve].
In the case of O=C(CCSCc1ccc(Cl)cc1)N1CCN(c2ccccc2F)CC1, the “activity change, negative = cell killing” value is reported as inactive: -23.2%.
For Nc1nc(Cl)nc2c1ncn2[C@H]1C[C@H](O)[C@@H](CO)O1, the Potency was inconclusive: 12.6 µM [cytotoxic, single point].
With CCOC(=O)COc1ccc(S(=O)(=O)NCc2cccnc2)cc1 the “activity change, negative = cell killing” value was inactive: 1.92%.
In the case of COc1ccc(N2CCN(C(=O)c3ccc(NC(=O)c4nsc5ccccc45)cc3)CC2)cc1, the Potency is reported as inconclusive: 7.94 µM [cytotoxic, partial curve].
In the case of COc1ccccc1NC(=O)CSc1nnc(-c2nonc2NC(C)=O)n1-c1ccccc1, the “activity change, negative = cell killing” value is reported as inactive: -4.06%.
With O=C(/C=C\c1ccc(O)c(O)c1)OCCc1ccccc1 the Potency was inconclusive: 12.6 µM [cytotoxic, partial curve].
For Cc1nn(-c2ccc(C(=O)O)cc2)c(N)c1-c1ccccc1, the Potency was active: 10 µM.
For CCCc1cc(=O)n2[nH]c(-c3ccccc3)cc2n1, the Potency was inconclusive: 15.8 µM [cytotoxic, partial curve].
For C=C1C(=O)O[C@@H]2[C@@H]1CC/C(C)=C\CC[C@@]1(C)O[C@H]21, the Potency was active: 6.31 µM.
For CCSC1=C(C#N)C(c2ccc(OC)c(OC)c2)CC(=O)N1 (stereo unspecified), the “activity change, negative = cell killing” value was inactive: 7.91%.
For Cc1ccccc1NC(=O)c1ccc(F)c(S(=O)(=O)N2CCc3ccccc3C2)c1, the Potency was inconclusive: 0.158 µM [cytotoxic, full curve].
With CCCCN(Cc1ccco1)C(=O)c1cc2c(s1)-c1c(C)cccc1OC2 the Potency was inconclusive: 17.8 µM [cytotoxic, single point].
In the case of O=C(O)c1cccc(-n2cccc2/C=N/O)c1, the “activity change, negative = cell killing” value is reported as inactive: 1.04%.
For COc1ccc(Nc2oc(-c3ccc(COc4ccccc4)o3)nc2C#N)cc1, the Potency was inconclusive: 10 µM [cytotoxic, partial curve].
In the case of O=C(O)COc1ccccc1C1Nc2ccccc2-c2nnc(SCc3ccc(Cl)cc3)nc2O1 (stereo unspecified), the Potency is reported as inconclusive: 15.8 µM [cytotoxic, single point].
With Clc1ccc(-n2ncc3c(NCC4CCCO4)ncnc32)cc1 (stereo unspecified) the Potency was inconclusive: 10 µM [cytotoxic, partial curve].
For COc1ccc(OC)c(N(CC(=O)Nc2cccnc2)S(=O)(=O)c2ccc(OC)c(OC)c2)c1, the “activity change, negative = cell killing” value was inactive: 16.4%.
In the case of COc1cc(NC(=O)c2cc(S(=O)(=O)N3CCC(C)CC3)cn2C)cc(OC)c1OC, the Potency is reported as inconclusive: 0.0063 µM [cytotoxic, full curve, poor fit].
For CCc1ccc(NS(=O)(=O)c2ccc(NC(=O)N3CCCC3)cc2)cc1, the Potency was inconclusive: 10 µM [cytotoxic, partial curve].
With CC(CNC(=O)c1csc2c1CCCCC2)c1ccccc1 (stereo unspecified) the Potency was inconclusive: 10 µM [cytotoxic, partial curve].
With CCc1ccc(NC(=O)Cn2nnc(C(=O)Nc3ccc(F)cc3)c2N)cc1 the Potency was inconclusive: 1.26 µM [cytotoxic, partial curve, poor fit].
With CC(C)c1ccc2oc(-c3cc(NC(=O)c4cccnc4)ccc3Cl)nc2c1 the Potency was inconclusive: 25.1 µM [cytotoxic, single point].
For CN1CCN(c2nc3c(c(=O)[nH]c(=O)n3C)n2CCOc2ccccc2)CC1, the Potency was inconclusive: 3.16 µM [cytotoxic, full curve, poor fit].
In the case of CC(NC(=O)c1cccc(NC(=O)c2nsc3ccccc23)c1)c1ccccc1 (stereo unspecified), the Potency is reported as inconclusive: 15.8 µM [cytotoxic, partial curve].
With COc1ccc2c(c1)Cc1sc(NC(=O)c3cccc(F)c3)nc1-2 the Potency was inconclusive: 15.8 µM [cytotoxic, single point].
In the case of Cc1ccc(NC(=O)NCC2CCN(Cc3cccc(Cl)c3)CC2)cc1Cl, the Potency is reported as active: 15.8 µM.
In the case of CCc1cccc(NC(c2nnc(-c3ccccc3)o2)c2ccc(F)cc2Cl)c1 (stereo unspecified), the Potency is reported as inconclusive: 31.6 µM [cytotoxic, single point].
In the case of CCCC(=O)Nc1cc(-c2nc3cccnc3s2)ccc1C, the Potency is reported as inconclusive: 15.8 µM [cytotoxic, single point].
With Cc1ccc(-c2cc(C(=O)Nc3c(C#N)cnn3C)no2)cc1 the Potency was inconclusive: 15.8 µM [cytotoxic, single point].
For Cc1ccc(C)c(Cn2c(SCC(=O)N(C)Cc3ccccc3)nc3ccccc32)c1, the “activity change, negative = cell killing” value was inactive: 5.73%.
In the case of Cc1ccc(C)c(N2CCN(C(=O)CCCCCn3c(=O)[nH]c4ccccc4c3=O)CC2)c1, the Potency is reported as inconclusive: 31.6 µM [cytotoxic, single point].
With CN(C(=O)CSc1nc2ccc(NC(=O)CCc3ccccc3)cc2s1)c1ccccc1 the Potency was inconclusive: 10 µM [cytotoxic, partial curve, poor fit].
In the case of CCc1ccccc1NC(=O)C(=O)NCC(c1cccnc1)N1CCc2ccccc21 (stereo unspecified), the Potency is reported as inconclusive: 25.1 µM [cytotoxic, single point].
With CCOc1ccc(-c2cc(C(=O)N3CCN(c4cccc(C)c4)C(C)C3)c3ccccc3n2)cc1 (stereo unspecified) the Potency was inconclusive: 15.8 µM [cytotoxic, partial curve].
In the case of CCOc1ccc(NC(=O)CSc2ncc3c(n2)-c2cc(Cl)ccc2N(C)S3(=O)=O)cc1, the Potency is reported as inconclusive: 25.1 µM [cytotoxic, single point].
With CC1=C(C(=O)NCc2ccc(C)cc2)C2(CCCCC2)OC1=O the activity change, negative = cell killing was inconclusive: -33.5% [cytotoxic].
With Cc1c(Cl)c(S(N)(=O)=O)cc(S(N)(=O)=O)c1NC(=O)c1ccc(Cl)cc1 the activity change, negative = cell killing was inactive: -10% [at 9.22 µM].
With CC(O)/C=C/c1ccc2ccccc2n1 (stereo unspecified) the Potency was inconclusive: 20 µM [cytotoxic, single point].
For CCOC(=O)c1c(C2COc3ccccc3O2)csc1N (stereo unspecified), the Potency was inconclusive: 25.1 µM [cytotoxic, single point].
For O=C(Nc1ccc2nc3n(c(=O)c2c1)CCCCC3)C(=O)Nc1ccccc1F, the Potency was inconclusive: 31.6 µM [cytotoxic, single point].
With Cc1cccc(Nc2nn3c(=O)c4cc5c(cc4nc3s2)OCO5)c1 the Potency was inconclusive: 3.98 µM [cytotoxic, full curve, poor fit].
In the case of COCCNC(=O)c1ccc(-n2c(-c3ccccc3)cc3c2CCC(C)C3)cc1 (stereo unspecified), the Potency is reported as inconclusive: 3.55 µM [cytotoxic, single point].
With CCCc1sc(N/N=C/c2ccccn2)nc1-c1ccc(F)cc1 the Potency was inconclusive: 17.8 µM [cytotoxic, single point].
For CCn1nc(C)c(CCN(C)C(=O)Nc2ccc(C)c(Cl)c2)c1C, the Potency was inconclusive: 31.6 µM [cytotoxic, single point].
In the case of COc1ccccc1Nc1c2c(nc3ccc(NC(=O)c4ccc(OC)c(OC)c4)cc13)CCCC2, the Potency is reported as inconclusive: 6.31 µM [cytotoxic, single point].
With Cc1cc(-c2nc3ncccc3o2)ccc1N the Potency was inconclusive: 15.8 µM [cytotoxic, single point].
In the case of COc1ccc(NC(=O)c2sc3nc4c(cc3c2N)CCCCCC4)c(OC)c1, the Potency is reported as inconclusive: 15.8 µM [cytotoxic, partial curve].
With Cc1ccc(Cl)cc1Nc1sc(C(=O)c2ccc(F)cc2)c(N)c1S(C)(=O)=O the activity change, negative = cell killing was inconclusive: -31.2% [cytotoxic].
